Test results: the supplement of paper PMC11417369
Some of the results follow.

tested on: PfSIP2 AP2 domain 1 (GST-tagged); assay: gcPBM binding intensity (ln(normalized median fluorescence intensity)); higher = stronger DNA binding
Procedure, shortened: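 After 1 h on an Agilent 4 × 180k array of primer-extended double-stranded 36-bp intergenic genomic probes and negative controls, bound GST-tagged P. falciparum DNA-binding domains were detected with Alexa488 anti-GST antibody and scanned at 488 nm. The domains had been expressed in E. coli, and binding took place in 1× PBS with 1% milk, 0.2 mg/ml BSA, 0.5% salmon testes DNA and 0.03% Triton X-100. Binding intensity is the highest Masliner-normalised natural-log median intensity across replicate spots of either probe orientation.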

Row | Sequence | gcPBM binding intensity (ln)
1 | TATATTATTAAGATATGTACATAATTATAAATTTAA [XGTACX_site6848] | 6.85
2 | TATAAATAAAAACACACACACACATATATATATATA [CACACA_site2268] | 9.29
3 | CTCTATAAATGCTGCACACACATTTAATTATTTAAG [CACACA_site2582] | 7.31
4 | TATAAATATAAATATACACACATATTTATATTTATA [CACACA_site7053] | 6.96
5 | AAATGAAATACATCCTGTACATAGTAATGCTAACAA [XGTACX_site6600] | 6.75
6 | TTTTACAATGAAAGGTGTACAAGTAACAGTAGAACA [XGTACX_site1528] | 7.4
7 | AACAAATACAGACACACACACACACTAATAAAAAAA [CACACA_site8067] | 7.33
8 | GATATATATTAATATACACACACACCGATATATATA [CACACA_site8462] | 7.45
9 | TATTTTTATATTTTTGCACACATTCTTTACTCTTCA [CACACA_site2211] | 7.27
10 | AAAAATTTTATATTCACACACATATATATATATATA [CACACA_site624] | 9.53
11 | TTTATATTTTATAAATTATTCATAAATATATTTGTA [TGCATGCA_negctrl_site175] | 6.88
12 | TTTTGAAACATATGATGTACACGAACATTTAAAAAA [XGTACX_site474] | 7.16
13 | AAATTCCACCAACACACACACATATAAATAAATAAA [CACACA_site1233] | 7.33
14 | AATAAATAGATAAGCACACAAGCATATAGACATATA [CACACA_site222] | 6.86
15 | TTTATAAAAATGAACACACACATATATATATATATA [CACACA_site3493] | 9.67
16 | AAATATTTATAGGTTTGTACTTATAAATAAAAAAAA [XGTACX_site7360] | 7.09
17 | AATATGAAAAGATGAACAACAAAATGGAGAACAATA [GTGCAC_negctrl_site612] | 7.15
18 | ATACAAAATTTTTAAGAACACACAAAAATGTACTAT [CACACA_site8817] | 7.01
19 | TGAGGTAACTAAATATGTACGTAACGAAGATACATA [XGTACX_site8231] | 6.99
20 | GCGTTATTAAATAATTCACACACATATATATATATA [CACACA_site8711] | 9.24
21 | GAACGCCATTCACATAAAGGGATACATAAATAAATA [XGTACX_negctrl_site330] | 7.1
22 | AAGAAAAACTTTACGTGTACCAAACGTCATGCCAAC [XGTACX_site2575] | 6.86

Row | Sequence | gcPBM binding intensity (ln)
23 | TACTTACACTGTTTTTGTACTTATTTCCCTTTTATT [XGTACX_site2158] | 7.27
24 | AATCACAAATAAAATAATATGACACAATATAAAATA [CACACA_negctrl_site537] | 6.92
25 | TTCTTGTATTTTCATAGTACATATAATGTCGTATTA [XGTACX_site600] | 7.28
26 | TAATTTCTTATGTATTGTACAAATAATGTATGATAT [XGTACX_site270] | 7.19
27 | AAATGTTATAACTCTTGAAAAAACAAAATATCATCA [CACACA_negctrl_site1156] | 6.76
28 | ACTTTACAATATATATGTACATATTAATAAACATAT [XGTACX_site3689] | 7.65
29 | GAGTTTTTTTAATGATGTACATTTTAAAAATAAACG [XGTACX_site1036] | 7.25
30 | AAAATAATATATGTATGTACATATACACATATAGAA [XGTACX_site2218] | 7.01
31 | TTTATTATACAAAATTGTACTTTATAATTTTATGTA [XGTACX_site5846] | 6.82
32 | AAATATTACGGAATAAAGAGCTTTTAAATAATTTTA [CACACA_negctrl_site1700] | 6.56
33 | AAATATAAACGGCACACACACAAAAAAAGAAAAAAA [CACACA_site649] | 7.18
34 | AGAAACCTTGTTAGTTAGCATATATATATATATATA [CACACA_negctrl_site372] | 9.47
35 | TATTTTATACATATTTTACACACTAATATATACATA [CACACA_site7998] | 7.12
36 | GTTGCGTATATATACACACATACATATATATATATA [CACACA_site1607] | 9.4
37 | TTATATAATAAAAATTGTACATATTATATATATATT [XGTACX_site3427] | 6.87
38 | TAATATTCAATTATACGTACACATATATATATATAT [XGTACX_site4245] | 9.26
39 | TATGAAAGAAATAGTACACACATAAACATTTGTAAA [CACACA_site2783] | 7.02
40 | TCATATATCATAACAGTGCAAAAAAAAAAAAATTAT | 8.58
41 | GTTTGATTAAACTTGACACACATATATATAAATATA [CACACA_site1784] | 6.9
42 | AAAAAAAAAAAAGAAACACACATATATATATATATA [CACACA_site140] | 8.95
43 | AGAAAATATACAAAACGTACTTATATATTATATCTA [XGTACX_site3104] | 6.78
44 | GTTAGAGGGAAAAAGAGTACATATATGTGGATAATT [XGTACX_site2064] | 6.96

Row | Sequence | gcPBM binding intensity (ln)
45 | TATTTATGTATATGCTGTACGCATTTGTGAAACATA [XGTACX_site4688] | 7.27
46 | AACCAATTAGAAGGATCCAGAACTTATTTGTTTTTA [CACACA_negctrl_site1744] | 6.56
47 | TACAAGCCCAATTCAAGTACATATATATATATATAT [XGTACX_site5569] | 9.57
48 | AGTTTGTCAATCAACACACACCTATTTATTATATAT [CACACA_site6030] | 6.79
49 | ATTCATTCATATGTTACACACACACGCCCACATAAA [CACACA_site7513] | 7.33
50 | TTATATATATATATATATATTTACATAATAATATGT [GTGCAC_negctrl_site388] | 7.55
51 | TAAAAAAAGGTTATTGGTACACACATATGTATATAT [XGTACX_site1029] | 7.17
52 | TAAACTTTCCAGTGTTGTACATAATAATTATTATAT [XGTACX_site8896] | 7.03
53 | AAAGATATGAAATATACACACTTCTTTGGTATTATT [CACACA_site6352] | 6.66
54 | AAAATTATAAATCTTGCACACAAAAAAAATAATAAA [CACACA_site8771] | 6.99
55 | TTTTCATTTATGTATATATTTATTTTGATTTAATGT [GTGCAC_negctrl_site607] | 6.67
56 | AATTATTTTATGTGAGGTACACCACACATGAAGGGG [XGTACX_site8450] | 7.66
57 | TAAATATATTCAATCACACACATTCGTTTTTTTTTT [CACACA_site234] | 6.87
58 | TATTGTTATGTCGTTATTAACTTTCTTTAATTAATT [CACACA_negctrl_site174] | 6.89
59 | AAATATTCATAGTATACACACATTTATATATAATCA [CACACA_site771] | 7.05
60 | TGAAAGTTCAATAATTGTACATGTGGAAATTCATAC [XGTACX_site1378] | 7.4
61 | AAAAAACACAGACACACACACATATACATACATACA [CACACA_site2666] | 7.51
62 | ATATTTCGTCTAAAAAGTACACAACAATAAAAAGTA [XGTACX_site6668] | 7.6
63 | TTTTTTAAATAATATTGTACAAAAAATGTATAAATA [XGTACX_site3010] | 6.97
64 | TTAGGTTTATACACTACACACATTATTCATAAAAAA [CACACA_site871] | 7.18
65 | TATATATATTTAAGGTGTACATAAATAACAAAATAT [XGTACX_site2641] | 7.47
66 | AAGTGTATACAGAAGAGTACAAACAATTTTTTTCTT [XGTACX_site7387] | 6.89

Row | Sequence | gcPBM binding intensity (ln)
67 | TTAAATTAAAACAAATGTACAAAGTGCATATTTTTT [XGTACX_site8143] | 8.31
68 | ATTTTTTTTTCTTTCGCACACGTGAAAGAATTTCTA [CACACA_site2052] | 7.13
69 | ATATTATATTATATAACACACATTTTTCATAACACT [CACACA_site407] | 7.13
70 | ATAATTTAATACTAGTGTACAGAAAAAAAAAAAAAA [XGTACX_site6756] | 7.12
71 | ACATATATATATAAATATATATATATATAAATATAT [CACACA_negctrl_site895] | 7.48
72 | GTTGAACATAGATGCACACACATAAAATAAAAAAAA [CACACA_site5353] | 7.74
73 | TGTTTAAATTTTTTGTTTTTTTTTTTATAAAGCAAA [TGCATGCA_negctrl_site313] | 6.7
74 | TGAAGGTCAGTTCACAGTACCCAGTAACTCTACGGA [XGTACX_site2554] | 6.62
75 | TATATTTTTTTAAAAAGTACTTTGTATATATATATA [XGTACX_site1300] | 9.42
76 | TTGTTGTTATTTAAAACACACATCAATCATCTTAAC [CACACA_site1142] | 6.84
77 | TTACGCATACTAATTACACACAAATAGATGAATATA [CACACA_site1338] | 7.14
78 | ATAAAAAAATAAATTAGTACATATATATATATATAT [XGTACX_site6971] | 9.5
79 | GTTTAACTGTTTTATACACACAATGTATACAATAAA [CACACA_site2959] | 7.02
80 | CATATATATATATGTACACACATTAATAAAAAAAAA [CACACA_site3230] | 7.41
81 | AGGTTATAAATAAATACACACATACAAAAATATGAC [CACACA_site4773] | 6.94
82 | AATCTGATCTTTTAAAGTACACAAAAAAAAAAAAAA [XGTACX_site115] | 6.92
83 | AAAAAAAAAAAAAAAAGTACGTATCAAAGCATCAAA [XGTACX_site880] | 7.59
84 | AATGAACACCTAAAATGTACGTACAAATATATTTTA [XGTACX_site7067] | 7.53
85 | ATGTTTAATTTTTTTTTGTCCCTATAGAAGTGTCAA [CACACA_negctrl_site1103] | 7
86 | AATGAATAAATAAACACACACACATATATAAATATG [CACACA_site6160] | 7.04
87 | AAAACAAACAGACACACACACATATATATATATATA [CACACA_site3655] | 9.6
88 | TTTGAGTGCACATACACACAGACATACATTTAAATA [CACACA_site3403] | 11.9
